# Paper PMC12615815
# Target: Small ribosomal subunit protein bS1 (UniProt P0AG67)
# Experiment: cross-link between two proteins; cross-linking mass spectrometry
# Chain of Large ribosomal subunit protein uL1 (chain, as listed by the source): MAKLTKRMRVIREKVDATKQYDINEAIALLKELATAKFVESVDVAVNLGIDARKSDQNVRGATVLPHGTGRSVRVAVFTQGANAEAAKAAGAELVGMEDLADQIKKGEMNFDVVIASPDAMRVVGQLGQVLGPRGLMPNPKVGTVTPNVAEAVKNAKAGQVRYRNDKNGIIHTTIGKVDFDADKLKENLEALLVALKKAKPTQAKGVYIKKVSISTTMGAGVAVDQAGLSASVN
substance,measurement,value
Large ribosomal subunit protein uL1,listed as a hit,yes
